Laboratory results as given in PubChem BioAssay AID1508623 (National Center for Advancing Translational Sciences (NCATS), 2021).
About 450 (0.94%) of roughly 48,000 compounds were called active. About 19% were inconclusive and are not listed. Calls follow the shape of the dose curve; as a rule, active = well fitted inhibition curve with a large enough effect; inconclusive = small, poorly fitted or top-dose-only effect; inactive = no such curve, though single readings can be large or run the other way. The list shows a part of the results.

Test: Primary qHTS for Identification of Small Molecule Inhibitors of Huntingtin Promoter Activity; also: nearly all actives have a fitted effect of over 50% in size
Conditions: HEK293 HTT promoter firefly luciferase reporter (activity 0% = vehicle and -100% = no light), 24 h; series mostly up to 57.5 µM; activity change, negative = inhibition: at the top concentration
In short: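 HEK293 luciferase promoter-reporter cells (2,500/well) plated 24 h, then compounds added at up to 57.5 uM final for 24 h at 37 °C. Firefly luminescence by Dual-Glo, normalized to vehicle (0%) and zero RLU (-100%).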

Activity change, negative = inhibition, inactive:
Cc1ccc2c(=O)cc(C(=O)Nc3ccc(S(=O)(=O)N4CCCCCC4)cc3)oc2c1C 13.1%
CCOC(=O)C1CCN(C(=O)C2CCN(C3=NS(=O)(=O)C(c4ccc(C)c(C)c4)=C3C)CC2)CC1 -26.7%
Cc1cccc(C2CC(=O)Oc3c2c(=O)n(C)c2ccccc32)c1 (stereo unspecified) -15.7%
CC(C)CCNC(=O)C1CCC(Cn2c(=O)c3sccc3n(CC(=O)NC(C)C)c2=O)CC1 (stereo unspecified) -8.31%
Cc1ccc(-n2c(=O)c3oc4ccccc4c3n(Cc3ccccc3F)c2=O)cc1C -6.45%
O=C(Cn1c(=O)n(-c2ccc(F)c(Cl)c2)c(=O)c2sc3ccccc3c21)NC1CCCC1 -15.2%
COc1ccc(CNC(=O)c2cc3c(s2)-c2ccccc2OC3)cc1 -14.6%
CCC(C)NC(=O)C(=O)Nc1c2c(nn1-c1ccccc1)CS(=O)(=O)C2 (stereo unspecified) -16.8%
COc1ccc(NC(=O)CSc2nc3c(oc4ccccc43)c(=O)n2-c2ccc(C)c(C)c2)cc1 -18.4%
CCOC(=O)c1c(NC(C)=O)c2c3c(sc2n1Cc1nc(-c2ccccc2C)oc1C)CCCC3 17.9%
O=C(c1ccc2c(c1)N(Cc1ccc(Cl)cc1)C(=O)c1ccccc1S2(=O)=O)N1CCCCC1 -27.6%
CC1CN(C(=O)CCC(=O)NCc2ccc(F)cc2)c2cc(Cl)ccc2O1 (stereo unspecified) -10.1%
O=C(CN1C(=O)CCSc2ccccc21)Nc1ccccc1F -14%
CCOc1ccc(CCNC(=O)C2COc3ccccc3C2)cc1OCC (stereo unspecified) -15.4%
Cc1ccc(S(=O)(=O)c2nc(-c3cccc(C)c3)oc2N2CCN(c3ccccc3)CC2)cc1 -23.1%
COC(=O)c1sc2cccc(F)c2c1S(=O)(=O)N1CCN(c2ccc(F)cc2)CC1 -6.4%
CCCSc1ncc(Cl)c(C(=O)Nc2nc3ccc(OCC)cc3s2)n1 -0.778%
Cc1ccc(CNC(=O)c2ccc3c(=O)n(-c4ccccc4)c(=O)[nH]c3c2)cc1 -16.7%
COc1cc(OC)c(NC(=O)NCc2ccc3c(c2)CCN3C(=O)c2ccccc2)cc1Cl -20.3%
CCc1ccccc1NC(=O)CSc1nc(-c2ccccc2OC)nc2c1Cc1c(CO)cnc(C)c1O2 -17.9%
CC(=O)c1cc(C(=O)Nc2cc(C)cc(C)c2)c2ccccn12 19.7%
COC(=O)C(CCSC)NC(=O)c1cc2c(n(-c3ccc(C)cc3)c1=O)CC(C)(C)CC2=O (stereo unspecified) -17.2%
Cc1ccc2c(c1)cc1c(=O)n(CC(=O)NC3CCCCC3)nc(C)n12 -2.03%
CCOC(=O)CC1c2cc(OCC)c(OCC)cc2CCN1C(=O)Nc1cccc(Cl)c1 (stereo unspecified) -20.9%
Cc1cccn2c(=O)c3cc(C(=O)NCc4ccccc4)c(=N)n(CCOCCO)c3nc12 -2.37%
NC(=O)C1(N2CCCCC2)CCN(CCCC(=O)c2ccc(F)cc2)CC1 3.89%
